Test results as given in PubChem BioAssay (NCATS).
This list was built around the results that the source calls inconclusive (neither active nor inactive); the mix of calls is not that of the screen. Where the call is inconclusive, the potency comes from a doubtful curve fit. Some compounds were tested as several samples or in several runs, with calls that do not always agree. Activity calls are given as the source filed them. Calls come from the whole dose curve; as a rule, active = well fitted inhibition curve with a large enough effect; inconclusive = small, poorly fitted or top-dose-only effect; inactive = flat fitted curve, though single readings scatter. Where a SMILES comes first, the peptide text is derived from it. [ ]: non-standard residue; d: D form. Ala(indol-2-yl) = N[C@@H](Cc1cc2ccccc2[nH]1)C(=O)O; Aib = CC(C)(N)C(=O)O

system: KB-3-1; test: Cytotoxic Profiling of Annotated Libraries Using Quantitative High-Throughput Screening (AID 1296008); details: Five cell lines viability, CellTiter-Glo ATP luminescence, 48-72 h; max response: hits give low values; note: nearly all actives have a fitted effect of over 60% in size
Outline: (§1)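 Compounds were pin-transferred onto cells and incubated 48 or 72 hr at 37 degree Celsius, 95% humidity. CellTiter-Glo was added, plates sat 10 min at room temperature, then ATP-coupled luminescence was imaged as the viability read-out.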
% is set by controls: 0 for no effect and ±100 for the full control effect; potency is the fitted concentration of half-maximal effect; tags give direction and shape of the fitted curve.

| SMILES | max response | Potency |
| --- | --- | --- |
| CCC1(c2ccccc2)CCC(=O)NC1=O (stereo not given) | inactive: -6.95% |  |
| CN1C2CCC1CC(OC(c1ccccc1)c1ccc(Cl)cc1)C2 (stereo not given) |  | inconclusive: 25.9 µM [inhibitor, partial curve, poor fit] |
| Oc1cc(Cl)c(Cl)cc1Cl | inactive: 0.226% |  |
| CCCCCCCCCCCCCCCC[N+](C)(C)C |  | inconclusive: 29.1 µM [inhibitor, single point] |

system: NIH3T3; test: as above; details: Five cell lines viability, CellTiter-Glo ATP luminescence, 48-72 h; max response: hits give low values
Outline: as §1

| SMILES | Potency | max response | outcome |
| --- | --- | --- | --- |
| O=C(OC[C@H]1O[C@@H](Oc2ccc(O)cc2CO)[C@H](O)[C@@H](O)[C@@H]1O)c1ccccc1 | inconclusive: 5.63 µM [inhibitor, partial curve, poor fit] |  |  |
| CC1(C)C(=O)N(c2ccc(C#N)c(C(F)(F)F)c2)C(=S)N1c1ccc(C(N)=O)c(F)c1 |  | inactive: 0.467% |  |
| COC[C@]12CN(C)C3C4[C@H](OC)[C@H]1C3(C(OC)C[C@H]2O)[C@H]1C[C@@]2(O)[C@H](OC(=O)c3ccccc3)[C@@H]1[C@]4(O)[C@@H](O)[C@@H]2OC (stereo not given in full) | inconclusive: 18.4 µM [inhibitor, single point] |  |  |
| CC#C[C@]1(O)CC[C@H]2[C@@H]3C[C@H](C)C4=CC(=O)CC[C@]4(C)[C@H]3CC[C@@]21C | inconclusive: 33.5 µM [inhibitor, single point] |  |  |
| CC(C)(C)[C@]1(O)C[C@@H]2OC(=O)C[C@@]23C(=O)O[C@@H]2OC(=O)[C@@H](O)[C@]213 |  | inactive: 3.76% |  |
| CCC(C)C1NC(=O)C(C(C)=O)=C1O (stereo not given) | inconclusive: 33.5 µM [inhibitor, single point] |  |  |
| CN1CN(c2ccccc2)C2(CCN(CCCC(=O)c3ccc(F)cc3)CC2)C1=O | inconclusive: 29.1 µM [inhibitor, single point] |  |  |
| Nc1c(Cl)c(Cl)c(Cl)c(Cl)c1Cl |  | inactive: 2.9% |  |
| C[N+](C)(C)CC(=O)O | inconclusive: 33.5 µM [inhibitor, single point] |  |  |
| C[C@@H]1C[C@@H](O)[C@]2(O)O[C@@H]3C[C@@]4(C=O)C(CC[C@@H]5C4CC[C@]4(C)[C@@H](C6=CC(=O)OC6)CC[C@]54O)C[C@H]3O[C@@H]2O1 (stereo not given in full) | inconclusive: 14.2 µM [inhibitor, single point] |  |  |
| Cc1ccccc1C1=CCN(C)CC1 | inconclusive: 23.1 µM [inhibitor, single point] |  |  |
| Cc1ccccc1-n1c(Cn2cnc3c(N)ncnc32)nc2cccc(C)c2c1=O | active: 2.64 µM |  |  |
| O=C(O)Cc1ccccc1 |  |  | inactive |
| O=C(N[C@H]1CN2CCC1CC2)c1cc2cccc(Cl)c2s1 | inconclusive: 23.1 µM [inhibitor, single point] |  |  |
| CCN(CC)CCc1c[nH]c2ccccc12 |  | inactive: -2.44% |  |
| COc1c(C(C)C)cc2c(c1O)[C@@]1(C(=O)O)CCCC(C)(C)C1CC2 (stereo not given in full) |  | inactive: 0.972% |  |
| CCC1CN2CCc3cc(OC)c(OC)cc3C2CC1CC1=NCCc2cc(O)c(OC)cc21 (stereo not given) | inconclusive: 8.93 µM [inhibitor, single point] |  |  |
| C[C@H]1CCCC=CC2C[C@H](O)C[C@@H]2[C@H](O)C=CC(=O)O1 (stereo not given in full) | active: 1.05 µM |  |  |

| SMILES | Potency | max response | outcome |
| --- | --- | --- | --- |
| CC[C@H]1C[C@@H]2CC[C@@H](O2)[C@@H](C)C(=O)O[C@H](CC)C[C@H]2CC[C@H](O2)[C@H](C)C(=O)O[C@@H](C)C[C@@H]2CC[C@@H](O2)[C@@H](C)C(=O)O[C@H](CC)C[C@H]2CC[C@H](O2)[C@H](C)C(=O)O1 | active: 0.0385 µM |  |  |
| CC[C@@H](C(N)=O)N1CCCC1=O |  | inactive: 1.04% |  |
| COc1cc2cc(c1Cl)N(C)C(=O)C[C@H](OC(=O)C(C)C)[C@]1(C)O[C@H]1[C@H](C)[C@@H]1C[C@@](O)(NC(=O)O1)[C@H](OC)C=CC=C(C)C2 |  | inactive: -88.8% |  |
| CCCN1CCO[C@@H]2c3cc(O)ccc3OC[C@@H]21 | inconclusive: 33.2 µM [inhibitor, single point] |  |  |
| CC(C)C[C@H](CN)CC(=O)O |  | inactive: -13.2% |  |
| C[C@@H]1[C@H](O)[C@@H](C)/C=C/C=C/CC/C=C/C=C/C=C/C=C/[C@H](O[C@H]2O[C@@H](C)[C@H](O)[C@@H](N)[C@H]2O)C[C@@H]2O[C@](O)(C[C@@H](O)[C@H](O)CC[C@@H](O)C[C@@H](O)C[C@@H](O)CC(=O)O[C@H]1C)C[C@H](O)[C@H]2C(=O)O | inconclusive: 14.2 µM [inhibitor, single point] |  |  |
| c1ccc(C2(c3ccccc3)OC[C@@H]([C@H]3CCCCN3)O2)cc1 |  | inactive: 0.771% |  |
| COC(=O)C12C(=O)C(C)(O)C(=O)C1(C)C(C)=CC1C3(C=O)CCC(OC(C)=O)C(C)(C)C3CCC12C (stereo not given) |  | inactive: -2.03% |  |
| CCOC(=O)c1ccc(-c2ccc(OC(=O)N(C)Cc3cccc(-c4ccncc4)c3)cc2)cc1 | inconclusive: 8.2 µM [inhibitor, partial curve] |  |  |
| CCN(CC)C(=O)[C@@H]1C=C2c3cccc4[nH]cc(c34)C[C@H]2N(C)C1 | inconclusive: 80 µM [inhibitor, partial curve] |  |  |
| CC1=CC2/C=C(\C)CCC(O)C(O)/C=C/C(=O)OC23C(=O)NC(CC(C)C)C3C1C (stereo not given) |  | inactive: -15.3% |  |
| COc1cccc(NCC(F)Cn2c3ccc(Br)cc3c3cc(Br)ccc32)c1 (stereo not given) | active: 20.6 µM |  |  |
| C[C@]12CC[C@@H](O)C[C@@H]1CC[C@@H]1[C@@H]2CC[C@]2(C)C(=O)[C@@H](Br)C[C@@H]12 | inconclusive: 0.164 µM [inhibitor, partial curve, poor fit] |  |  |
| OCc1nnc2n1-c1ccc(Cl)cc1C(c1ccccc1Cl)=NC2 | inconclusive: 25.9 µM [inhibitor, single point] |  |  |
| C1=C2CCCN[C@H]2[C@@H]2C[C@H]1[C@@H]1CCCCN1C2 |  |  | inactive |
| CC(C)(NC(=O)[C@@H](N)Cc1ccc(O)cc1)C(=O)N[C@@H](Cc1cc2ccccc2[nH]1)C(=O)N[C@@H](Cc1ccccc1)C(=O)O (H-Y[Aib][Ala(indol-2-yl)]F-OH) | inconclusive: 5.31 µM [inhibitor, single point] |  |  |
| O=C1N[C@@H](Cc2ccccc2)CN2CCCC[C@@H]12 |  | inactive: 1.01% |  |
| COc1ccc(CC2C(=O)NC(C)C(=O)N(C)C3Cc4ccc(cc4)Oc4cc(ccc4OC4OC(CO)C(O)C(O)C4O)CC(C(=O)NC(C)C(=O)NC(CCC(=O)O)C(=O)N2C)N(C)C3=O)cc1 (stereo not given) | inconclusive: 6.18 µM [inhibitor, partial curve, poor fit] |  |  |
